In all, about 52,000 compounds went through this assay and about 4,300 (8.3%) were called active. No stated cut-off is given here; in the data, active means survival mostly below about 52% (no sharp cut-off); inactive means mostly above about 56%. This is one part of the list.

In the experiment the test system is DeltatarO mutant. Put plainly: S. aureus survival, RN4220 and DeltatarO strains – OD600, teichoic acid synthesis inhibitors, primary screen (AID 463173). Conditions: S. aureus RN4220 wild type/DeltatarO growth, OD600, 18 h, active compounds read low, screened at 18.75 µg/mL (by protocol).
With `Cc1cccc2nc(Cn3c(=O)n(-c4ccc(Cl)cc4)c(=O)c4c5c(sc43)CCC5)cc(=O)n12`, the survival was inactive: 155%.
As for `CCOc1ccc(C(=O)Nc2cccc(C(=O)OCc3cc(=O)n4cc(C)sc4n3)c2)cc1`, the survival is inactive: 102%.
The value for `COc1ccc(Br)cc1CNC(=O)c1cc(=O)[nH]c2ccc(S(=O)(=O)N3CCCCC3C)cc12` (stereo not drawn) was inactive: 82%; that for `CCn1cc(C(=O)NCCc2ccccc2)c(=O)c2cc(S(=O)(=O)N3CCCCCC3)ccc21` was inactive: 66%.
With `Cc1nn(C(C)C(=O)N2CCN(c3ccc(F)cc3)CC2)c(=O)c2c1sc1ccccc12` (stereo not drawn), the survival is inactive: 105%.
As to `CCOC(=O)c1ccc(NC(=O)CCCc2nc(-c3cc(OC)c(OC)c(OC)c3)no2)cc1`, the survival was active: 44%.
In the case of `CCCNC(=O)C1CCC(Cn2c(=O)c3sccc3n(CC(=O)NCc3ccccc3)c2=O)CC1` (stereo not drawn), the survival was inactive: 76%.
The figure for `Cc1nn(CCCC(=O)NCc2ccccc2Br)c(=O)c2c1sc1ccccc12` is inactive: 88%.
The figure for `O=C(/C=C/N1CCOCC1)c1cc2ccccc2o1` is inactive: 99%; for `CCOc1ccc(S(=O)(=O)N(CC(=O)Nc2ccc(OC)cc2OC)c2ccccc2)cc1` it is inactive: 145%.
The value for `O=C(CN1C=NS(=O)(=O)c2ccccc21)Nc1ccccc1F` was inactive: 77%; that for `O=C(NCc1ccccc1F)C1CCCN(C(=O)N2CCOc3ccccc32)C1` (stereo not drawn) was inactive: 86%.
Turning to `Cc1ccc2c(CC(=O)Nc3ccc(S(=O)(=O)N4CCCCC4C)cc3)coc2c1C` (stereo not drawn), the survival is inactive: 53%.
Take `CCc1ccc2ncc3c(-c4ccc(F)cc4)nn(CC(=O)NC4CCCCC4)c3c2c1`: the survival was inactive: 106%.
The figure for `CCOC(=O)Cn1c(=O)n(-c2cccc(Cl)c2)c2nc(-c3ccccc3Cl)nc(C(N)=O)c21` is inactive: 80%; for `COc1ccc(N2CCN(CCCNC(=O)c3nnc(Cc4ccc(F)cc4)o3)CC2)cc1` it is inactive: 107%.
The value for `CN(C)c1ccc(CNC(=O)Cc2ccc(NC(=O)N3CCCCc4ccccc43)cc2)cc1` was inactive: 83%; that for `CC(C)(C)NC(=O)CCSc1nnc(-c2ccccc2)o1` was inactive: 84%; that for `CC(=O)N1c2ccc(S(=O)(=O)N3CCC(C(=O)Nc4cccc(Cl)c4C)CC3)cc2CC1C` (stereo not drawn) was inactive: 84%.
The figure for `CC(C)(C)C(=O)C1=C(O)C(=O)N(Cc2ccccc2)C1c1cccnc1` (stereo not drawn) is inactive: 99%; for `COc1ccc(Nc2ncc(C(=O)Nc3ccc(F)cc3F)c3ccccc23)cc1` it is active: 35%.
For the compound `CCOCCCn1c(SCC(=O)Nc2ccc(F)cc2)nc2c(sc3ccccc32)c1=O`, the survival was inactive: 128%.
The value for `CCC(C(=O)Nc1cc(-c2cn3cccnc3n2)ccc1C)c1ccccc1` (stereo not drawn) was inactive: 91%; that for `COc1ccccc1N1CCN(S(=O)(=O)c2ccc3c(c2)CCCN3C(C)=O)CC1` was inactive: 58%; that for `Cc1cc(=O)n2nc(N3CCC(C(=O)NCCCOC(C)C)CC3)sc2n1` was inactive: 100%.
The figure for `O=C(CC1NCCNC1=O)Nc1ccc(F)c(Cl)c1` (stereo not drawn) is inactive: 70%; for `O=C(CSc1nnc(CNC(=O)c2ccccc2)n1-c1ccc(F)cc1)Nc1ccccc1F` it is inactive: 74%; for `Cc1cc(NC(=O)c2oc3c(c2C)-c2[nH]ncc2CC3)ccc1Br` it is active: 3%.
As to `Cc1nn(-c2ccc(F)cc2)c(-n2cccc2)c1C(=O)N1CCCCC1C` (stereo not drawn), the survival is inactive: 75%.
The figure for `COc1ccc(NC(=O)CN2CCCN(Cc3ccccc3)S2(=O)=O)cc1` is inactive: 88%; for `Fc1ccc(CNc2nc(-c3ccc(Cl)cc3)cc(C(F)(F)F)n2)cc1` it is active: 12%; for `O=C(CSc1nc2ccccc2nc1Cc1ccc(Cl)cc1)N1CCCCC1` it is inactive: 74%.
The figure for `CCCCOC(=O)c1ccc(NC(=O)c2ccc3c(c2)CCCN3S(C)(=O)=O)cc1` is inactive: 96%; for `CCCCNS(=O)(=O)c1ccc(NC(=O)c2c(-c3ccccc3)noc2C)cc1` it is inactive: 101%; for `COc1ccc(CNC(=O)CSc2ncnc3nc[nH]c23)cc1` it is inactive: 73%.
The value for `CCc1ccccc1-n1c(SCC(=O)Nc2ccc(C)cc2)nc2n[nH]c(C)c2c1=N` was inactive: 94%; that for `CCc1cccc(NC(=O)Cn2c(-c3ccc(F)cc3)cc(C(C)=O)c2C)c1` was inactive: 73%; that for `O=C(c1ccc2c(c1)N(Cc1ccccc1Cl)C(=O)c1ccccc1S2)N1CCCC1` was inactive: 90%.
For `COc1ccc(CCCC(=O)NN=Cc2ccco2)cc1`, the survival is inactive: 54%.
The figure for `O=C(CC1CCCCC1)Nc1ccccn1` is inactive: 73%; for `Cc1ccccc1CNC(=O)CN1CCSc2ccccc21` it is inactive: 89%; for `COc1ccc(Cl)cc1NC(=O)CSc1nc(-c2cccs2)cc(C(F)(F)F)n1` it is active: 35%.
The figure for `O=c1oc2ccccc2cc1-c1nc(-c2cccc(Cl)c2)cs1` is inactive: 102%; for `COc1ccccc1N1CCN(c2ncc3c(n2)CCN(Cc2ccc(C)s2)C3)CC1` it is inactive: 80%; for `CCC(CC)C(=O)Nc1ccc2nc(SCC(=O)N3CCOCC3)sc2c1` it is inactive: 82%.
The value for `Cc1ccccc1C(=O)Nc1sc2c(c1C(=O)N1CCCCC1)CCC(C(C)(C)C)C2` (stereo not drawn) was active: -2%; that for `O=C(NCc1ccc(Cl)cc1)C1CCN(S(=O)(=O)c2ccc(F)cc2)CC1` was inactive: 50%; that for `CSc1ccc(CCNC(=O)c2c(C)nn(-c3ccc(F)cc3)c2-n2cccc2)cc1` was inactive: 74%.
On to `Cc1ccc(CSc2nc3ccc(NC(=O)CC(C)C)cc3s2)cc1`, for which the survival is inactive: 82%.
The value for `CCC(C)n1c(SCc2ccc(F)cc2Cl)nc2ccsc2c1=O` (stereo not drawn) was inactive: 128%.
The figure for `CCOC(=O)c1noc2ncn(Cc3ccc([N+](=O)[O-])cc3)c(=O)c12` is inactive: 124%; for `N#Cc1ccc(C2NC(=O)NC3=C2C(=O)OC3)cc1` (stereo not drawn) it is inactive: 77%; for `CCN(CC)C(=O)Cn1cc(SCC(=O)Nc2cc(OC)ccc2OC)c2ccccc21` it is inactive: 91%.
Take `Cc1ccc(Cl)cc1N1CCN(C(=O)c2sc3nc4n(c(=O)c3c2C)CCC4)CC1`: the survival was inactive: 68%.
The figure for `CN(C)CCNC(=O)c1ccc2nc(Cc3ccccc3)oc2c1` is inactive: 102%.
The value for `COc1ccc(Cl)cc1NC(=O)CSc1cc(C)[nH]c(=O)n1` was inactive: 80%.
The value for `CCCCc1c(C)[nH]c2ccccc2c1=O` was inactive: 83%; that for `Cc1cccn2c(=O)cc(CSc3nnc(NC(=O)C(C)C)s3)nc12` was inactive: 91%.

Values taken from PubChem BioAssay AID463173 (ICCB-Longwood Screening Facility, Harvard Medical School, 2010).
